Assay results published in PubChem BioAssay AID624417 (National Center for Advancing Translational Sciences (NCATS), 2012).
Where “and” joins values, the source holds several entries; their conditions need not be identical. Equal entries are not always repeated. Screen size: about 410,000 compounds; about 6,400 (1.6%) were called active. Inconclusive results, whose numbers are uncertain, are shown with a selection of clear calls. Calls follow the shape of the dose curve; as a rule, active = well fitted inhibition curve with a large enough effect; inconclusive = small, poorly fitted or top-dose-only effect; inactive = no such curve, though single readings can be large or run the other way. Potencies beside an inconclusive call are fits to weak or partial responses and may not hold up.

Target: Glucagon-like peptide 1 receptor (Homo sapiens) (UniProt P43220)
Sequence of UniProt P43220 (P43220 whole entry, looked up): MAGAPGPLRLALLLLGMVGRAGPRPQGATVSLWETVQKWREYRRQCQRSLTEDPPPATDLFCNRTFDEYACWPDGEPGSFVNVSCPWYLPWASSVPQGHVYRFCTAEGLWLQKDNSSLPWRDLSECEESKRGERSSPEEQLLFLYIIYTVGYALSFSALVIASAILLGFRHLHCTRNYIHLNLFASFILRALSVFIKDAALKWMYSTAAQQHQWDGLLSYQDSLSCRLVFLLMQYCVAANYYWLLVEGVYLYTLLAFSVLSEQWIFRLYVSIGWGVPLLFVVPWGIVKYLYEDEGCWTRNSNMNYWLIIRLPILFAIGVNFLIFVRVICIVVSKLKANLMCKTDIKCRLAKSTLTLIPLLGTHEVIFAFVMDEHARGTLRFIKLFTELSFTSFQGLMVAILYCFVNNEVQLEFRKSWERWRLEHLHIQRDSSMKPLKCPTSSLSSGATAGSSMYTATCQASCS
Assay: qHTS of GLP-1 Receptor Inverse Agonists (Inhibition Mode); also: nearly all actives have a fitted effect of over 55% in size
Settings: HEK293 GLP-1R CRE-luciferase, luminescence, 24 h, GLP-1R form is constitutively active; activity change, negative = inhibition: at 38.3 µM (top of the series) unless noted
Method in brief: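 HEK293 cells stably co-expressing constitutively active GLP-1R and a cAMP-responsive luciferase reporter were seeded in DMEM with 10% Nu serum, given compounds after 12 h, and incubated 24 h at 37 deg C. Luminescence was then read.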
% is scaled to controls: 0 for no effect and ±100 for the full control effect; potency is read from the fitted curve at half-maximal effect; tags tell the direction and shape of the fitted curve.

SMILES | Potency | activity change, negative = inhibition
O=C(CSc1nc(SCC(=O)NCc2ccccc2)n(-c2ccccc2)n1)NCc1ccccc1 | inconclusive: 28.2 µM [inhibitor, single point] | –
O=C(C1CCN(c2nnc(N3CCCC3=O)s2)CC1)N1CCN(c2cccc(C(F)(F)F)c2)CC1 | inconclusive: 5.01 µM [inhibitor, partial curve] | –
Cc1cc(Br)ccc1OCc1nnc(-c2ccccc2)o1 | inconclusive: 28.2 µM [inhibitor, single point] | –
CCC1(C)CC(CCNS(=O)(=O)c2ccc(C)cc2)(c2ccc(C)cc2)CCO1 (centres undefined) | inconclusive: 11.2 µM [inhibitor, partial curve, poor fit] | –
COc1cccc(CN(C)c2nc(-c3cccs3)nc3ccccc23)c1 | inconclusive: 28.2 µM [inhibitor, single point] | –
CSCCC(NS(=O)(=O)c1ccc(Cl)cc1)C(=O)OCC(=O)N1CCCc2ccccc21 (centres undefined) | inconclusive: 10 µM [inhibitor, partial curve] | –
Cc1ccc2cccc(NC(=O)c3ccc(-c4cccc(Cl)c4Cl)o3)c2n1 | – | inactive: -14.6%
CC(C)(C)c1ccc(OC2=CS(=O)(=O)c3ccccc32)cc1 | inconclusive: 28.2 µM [inhibitor, single point] | –
COc1ccc(-c2cc(C(=O)Nc3cccc(O)c3)no2)cc1 | inconclusive: 14.1 µM [inhibitor, single point] | –
O=C(CN1CCC(n2nnc3cc(C(F)(F)F)ccc32)CC1)Nc1ccc2c(c1)OCCO2 | inconclusive: 2.24 µM [inhibitor, full curve, poor fit] | –
COc1ccc(CCCc2nnc(SCC(=O)Nc3ccc(F)cc3)o2)cc1C | – | inactive: 9.73%
CCCC(=O)NC(=S)Nc1cccc(NC(=O)c2ccccc2)c1 | inconclusive: 11.2 µM [inhibitor, partial curve, poor fit] | –
CCN1C(=NCc2ccc(OC)cc2)N[C@@H](c2ccccc2)[C@H](C(=O)OC)[C@H]1C | – | inactive: -10.9%
C=CCNc1nc(NCCN2CCOCC2)nc(OC)n1 | – | inactive: 10.5%
Cc1cccc(NC(=O)c2nc[nH]c2C(=O)N[C@H](C)c2ccccc2)c1 | inconclusive: 22.4 µM [inhibitor, single point] | –
N#Cc1ccccc1Sc1ccccc1C(=O)OCc1nnc(-c2ccccc2)o1 | inconclusive: 8.91 µM [inhibitor, partial curve, poor fit] | –
Cc1ccc(-c2c(C(=O)NCc3ccc(F)cc3)oc(=O)c3ccccc23)cc1 | inconclusive: 11.2 µM [inhibitor, partial curve, poor fit] and inconclusive: 28.2 µM [inhibitor, single point] | –
COc1ccccc1C(=O)N1C(CC(=O)Nc2ccc(C)c(C)c2)C(=O)NC2CCCCC21 (centres undefined) | inconclusive: 0.562 µM [inhibitor, partial curve, poor fit] | –
COc1ccc(-c2noc(CCC(=O)N3CCN(c4ccccc4C(F)(F)F)CC3)n2)cc1 | inconclusive: 14.1 µM [inhibitor, single point] | –
CC1CCN(C(=O)CN2c3ccc(C(C)C)cc3-c3ccccc3S2(=O)=O)CC1 | inconclusive: 10 µM [inhibitor, partial curve, poor fit] | –

SMILES | Potency | activity change, negative = inhibition
Cn1nc(C(=O)NCc2ccc(F)cc2)c2c1-c1ccccc1SC2 | inconclusive: 14.1 µM [inhibitor, single point] | –
CC1(C)SC(=S)N(/N=C/c2ccccc2O)C1N(O)C(=O)Nc1ccccc1 (centres undefined) | inconclusive: 12.6 µM [inhibitor, single point] | –
COCc1ccc(C(=O)N(C)CC2CCCN(CCc3ccc(Cl)cc3)C2)o1 (centres undefined) | inconclusive: 17.8 µM [inhibitor, partial curve, poor fit] | –
C/C(=N/NC(=O)CCCOc1ccc(Cl)cc1Cl)c1ccc(C)o1 | inconclusive: 14.1 µM [inhibitor, single point] | –
Cc1ccc(NC(=O)c2ncn(CCCN[C@H](C)c3cccc4ccccc34)n2)cc1C | inconclusive: 22.4 µM [inhibitor, partial curve, poor fit] | –
CCc1ccc(NSc2ccccc2[N+](=O)[O-])cc1 | inconclusive: 11.2 µM [inhibitor, partial curve, poor fit] | –
Cc1nn(-c2ccccc2)c(Cl)c1/C=N/NC(=O)CNC(=O)c1ccccc1Cl | inconclusive: 11.2 µM [inhibitor, single point] | –
COc1ccc(CCNC(=O)C2CCCN2C(=O)Nc2ccc(F)cc2)cc1OC (centres undefined) | – | inactive: -10.6%
CCC(c1nnnn1Cc1ccc2c(c1)OCO2)N1CCN(c2ccc(F)cc2)CC1 (centres undefined) | inconclusive: 31.6 µM [inhibitor, partial curve, poor fit] | –
COc1ccc(N=C(NN)c2ccc3ccccc3n2)cc1 | inconclusive: 6.31 µM [inhibitor, partial curve, poor fit] | –
O=C(/C=C/c1cccs1)c1cc(F)ccc1OC(=O)N1CCOCC1 | inconclusive: 31.6 µM [inhibitor, partial curve, poor fit] | –
C=CCn1c(SCC(O)Cn2c3ccccc3c3ccccc32)nnc1-c1ccco1 (centres undefined) | inconclusive: 11.2 µM [inhibitor, partial curve, poor fit] | –
COc1ccccc1N(CC(O)Cn1c2ccccc2c2ccccc21)S(=O)(=O)c1ccccc1 (centres undefined) | inconclusive: 11.2 µM [inhibitor, partial curve, poor fit] | –
CCc1ccc(NC(=O)N2c3ccccc3Sc3ccccc32)cc1 | inconclusive: 12.6 µM [inhibitor, partial curve, poor fit] | –
O=C(NC(=S)Nc1ccccc1N1CCN(C(=O)c2ccccc2)CC1)c1ccccc1F | inconclusive: 28.2 µM [inhibitor, partial curve, poor fit] | –
COc1ccccc1CNC(=O)c1cc2cccc3c2n1CC(C)S3 (centres undefined) | inconclusive: 11.2 µM [inhibitor, single point] | –
Cc1ccc(NC(=O)COn2nnc3ccc(S(=O)(=O)N(C)C)cc32)cc1F | inconclusive: 28.2 µM [inhibitor, single point] | –
O=CN(Cc1ccccc1)c1cc([N+](=O)[O-])ccc1OCc1ccccc1 | inconclusive: 28.2 µM [inhibitor, single point] | –
C1=C(c2ccccc2)Nc2ccccc2N=C1c1ccccc1 | inconclusive: 12.6 µM [inhibitor, single point] | –
O=C(Cn1cnc2onc(-c3ccc(F)cc3)c2c1=O)Nc1cccc(C(F)(F)F)c1 | inconclusive: 12.6 µM [inhibitor, partial curve, poor fit] | –

SMILES | Potency | activity change, negative = inhibition
O=C(OCC(=O)N1CCc2ccccc2C1)c1c(F)cccc1Cl | inconclusive: 28.2 µM [inhibitor, single point] | –
CCOC(=O)c1ccc(NC(=O)c2nc(SC(C)C)ncc2Cl)cc1 | inconclusive: 20 µM [inhibitor, partial curve, poor fit] | –
Cc1ccc(OCc2nc3ccccc3n2C)cc1 | inconclusive: 22.4 µM [inhibitor, single point] | –
O=C(CSc1ncccn1)Nc1ccc2c(c1)OCO2 | – | inactive: 7.42%
COc1cccc(CC2(CO)CCCN(Cc3cn[nH]c3C3CCCCC3)C2)c1 (centres undefined) | inconclusive: 5.01 µM [inhibitor, partial curve] | –
Cc1c(C2(O)CCCCC2)[nH]c2ncccc12 | inconclusive: 28.2 µM [inhibitor, single point] | –
Cc1oc(-c2cccc(C(F)(F)F)c2)nc1CN1CCN(c2ccccn2)CC1 | inconclusive: 11.2 µM [inhibitor, single point] | –
Cc1cc(NC(=O)/C=C/C(=O)N(c2ccccc2C)C(C(=O)NC2CCCC2)c2ccc(F)cc2)no1 (centres undefined) | inconclusive: 11.2 µM [inhibitor, partial curve, poor fit] | –
O=S1(=O)CC(NCc2ccccc2)C(Nc2ccc(Cl)cc2)C1 (centres undefined) | inconclusive: 7.94 µM [inhibitor, partial curve, poor fit] | –
COc1ccccc1-n1nnnc1SCc1ccccc1 | inconclusive: 25.1 µM [inhibitor, single point] | –
Cc1ccc(CNC(=O)CCCN2C(=O)CCn3nc(-c4cn(C)c5ccccc45)cc32)cc1 | – | inactive: -11.8%
Cc1ccc(NC(=O)CC2COc3ccccc3O2)cc1 (centres undefined) | inconclusive: 5.01 µM [inhibitor, partial curve] | –
Cc1nc(S(=O)(=O)N(C)c2ccccc2)c(C#N)c(C)c1Cl | active: 5.62 µM | –
CCn1c2c(c(=O)n3ncc(C(=O)Nc4ccc(OC(F)(F)F)cc4)c13)CN(Cc1ccc(OC)cc1)CC2 | inconclusive: 10 µM [inhibitor, single point] | –
COc1ccc(CCNC(=O)c2c[nH]n3c(=O)c(Cc4ccccc4Cl)c(C)nc23)cc1OC | inconclusive: 28.2 µM [inhibitor, single point] | –
COc1ccc(C(=O)NCCC2=CCCCC2)cc1OC1CCN(C(C)C)CC1 | inconclusive: 10 µM [inhibitor, single point] | –
CCOc1cc(N2CCOCC2)c(OCC)cc1NS(=O)(=O)c1ccc(Cl)s1 | inconclusive: 5.62 µM [inhibitor, partial curve, poor fit] | –
CN(CC(=O)Nc1ccccc1Br)C(=O)CCSc1ccc(F)cc1 | inconclusive: 22.4 µM [inhibitor, single point] | –
CN=C(Nc1ccc(C)c(C)c1)SC1CC(=O)N(c2ccc(OC)cc2)C1=O (centres undefined) | inconclusive: 10 µM [inhibitor, partial curve, poor fit] | –
